# Results from the supplement of paper PMC8728848.
# The list shows a part of the results.
# B1: rCnSL-proA (Clitocybe nebularis) (protein)
# chain: AAFFSLVVLLALLPFGIHASALPSTELTPRVNPNLPGPNDVFVGFRGTNNIVGAIYEKDGIKDTPLNNGADAEMGPGSYITDGLFTARIFASGSAGNNPGTTATVCKIYASGVQWRGAPKGYIPVAYFGNGPTAEQRRQTYLRTLGLPGTAIRFGNLNTNPGQGPTAPRQMVVPPGPLRSLLKASCFPAADTRLPQTLHYFEKRVDWNIITAADSQTWGH
# What was measured:
# Test in all cases: glycan array binding signal (z-score within array); higher = stronger binding
# Settings in all cases: glycan notation: IUPAC condensed, linker removed
# [1] = target: Gal(a1-3)Gal(b1-4)GlcNAc(b1-2)Man
# How it was run: (§1)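 From the Consortium for Functional Glycomics database, 3228 arrays were curated, keeping only those whose protein sequence was available. Binding is given as a within-array Z-score averaged across arrays sharing a protein sequence and across linkers. Negative Z-scores can be read as non-binding.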
# [2] = target: Gal(a1-3)Gal(b1-4)GlcNAc(b1-2)Man(a1-3)[Gal(a1-3)Gal(b1-4)GlcNAc(b1-2)Man(a1-6)]Man(b1-4)GlcNAc(b1-4)GlcNAc
# How it was run: as §1
# [3] = target: Gal(a1-3)Gal(b1-4)GlcNAc(b1-3)GalNAc
# How it was run: as §1
# [4] = target: Gal(a1-3)Gal(b1-4)GlcNAc(b1-6)GalNAc
# How it was run: as §1
# [5] = target: Gal(a1-3)Gal(b1-4)[Fuc(a1-3)]GlcNAc
# How it was run: as §1
# [6] = target: Gal(a1-3)Gal(b1-4)[Fuc(a1-3)]GlcNAc(b1-2)Man(a1-3)[Gal(a1-3)Gal(b1-4)[Fuc(a1-3)]GlcNAc(b1-2)Man(a1-6)]Man(b1-4)GlcNAc(b1-4)GlcNAc
# How it was run: as §1
# Gal(a1-3)GalNAc = target: Gal(a1-3)GalNAc
# How it was run: as §1
# [7] = target: Gal(a1-3)[Gal(a1-4)]Gal(b1-4)GlcNAc
# How it was run: as §1
# [8] = target: Gal(a1-4)Gal(b1-3)GlcNAc(b1-2)Man(a1-3)[Gal(a1-4)Gal(b1-3)GlcNAc(b1-2)Man(a1-6)]Man(b1-4)GlcNAc(b1-4)GlcNAc
# How it was run: as §1
# Gal(a1-4)Gal(b1-4)Glc = target: Gal(a1-4)Gal(b1-4)Glc
# How it was run: as §1
# Gal(a1-4)Gal(b1-4)GlcNAc = target: Gal(a1-4)Gal(b1-4)GlcNAc
# How it was run: as §1
# [9] = target: Gal(a1-4)Gal(b1-4)GlcNAc(b1-2)Man(a1-3)[Gal(a1-4)Gal(b1-4)GlcNAc(b1-2)Man(a1-6)]Man(b1-4)GlcNAc(b1-4)GlcNAc
# How it was run: as §1
# [10] = target: Gal(a1-4)Gal(b1-4)GlcNAc(b1-3)Gal(b1-4)Glc
# How it was run: as §1
# Gal(a1-4)GlcNAc = target: Gal(a1-4)GlcNAc
# How it was run: as §1
# Gal(a1-6)Glc = target: Gal(a1-6)Glc
# How it was run: as §1
# Gal(b1-2)Gal = target: Gal(b1-2)Gal
# How it was run: as §1
# Gal(b1-3)Gal = target: Gal(b1-3)Gal
# How it was run: as §1
# Gal(b1-3)Gal(b1-4)GlcNAc = target: Gal(b1-3)Gal(b1-4)GlcNAc
# How it was run: as §1
# Gal(b1-3)GalNAc = target: Gal(b1-3)GalNAc
# How it was run: as §1
# [11] = target: Gal(b1-3)GalNAc(a1-3)[Fuc(a1-2)]Gal(b1-4)Glc
# How it was run: as §1
# [12] = target: Gal(b1-3)GalNAc(a1-3)[Fuc(a1-2)]Gal(b1-4)GlcNAc
# How it was run: as §1
# Gal(b1-3)GalNAc(b1-3)Gal = target: Gal(b1-3)GalNAc(b1-3)Gal
# How it was run: as §1
# [13] = target: Gal(b1-3)GalNAc(b1-3)Gal(a1-4)Gal(b1-4)Glc
# How it was run: as §1
# [14] = target: Gal(b1-3)GalNAc(b1-4)Gal(b1-4)Glc
# How it was run: as §1
# [15] = target: Gal(b1-3)GalNAc(b1-4)[Neu5Ac(a2-3)]Gal(b1-4)Glc
# How it was run: as §1
# Gal(b1-3)GlcNAc = target: Gal(b1-3)GlcNAc
# How it was run: as §1
# [16] = target: Gal(b1-3)GlcNAc(a1-3)Gal(b1-4)GlcNAc
# How it was run: as §1
# [17] = target: Gal(b1-3)GlcNAc(a1-6)Gal(b1-4)GlcNAc
# How it was run: as §1
# Gal(b1-3)GlcNAc(b1-2)Man = target: Gal(b1-3)GlcNAc(b1-2)Man
# How it was run: as §1
# [18] = target: Gal(b1-3)GlcNAc(b1-2)Man(a1-3)[Gal(b1-3)GlcNAc(b1-2)Man(a1-6)]Man(b1-4)GlcNAc(b1-4)GlcNAc
# How it was run: as §1
# [19] = target: Gal(b1-3)GlcNAc(b1-2)Man(a1-3)[Gal(b1-3)GlcNAc(b1-2)Man(a1-6)]Man(b1-4)GlcNAc(b1-4)[Fuc(a1-6)]GlcNAc
# How it was run: as §1
# [20] = target: Gal(b1-3)GlcNAc(b1-2)Man(a1-3)[GlcNAc(b1-4)][Gal(b1-3)GlcNAc(b1-2)Man(a1-6)]Man(b1-4)GlcNAc(b1-4)GlcNAc
# How it was run: as §1
# [21] = target: Gal(b1-3)GlcNAc(b1-2)[Gal(b1-3)GlcNAc(b1-6)]Man(a1-6)[Gal(b1-3)GlcNAc(b1-2)Man(a1-3)]Man(b1-4)GlcNAc(b1-4)GlcNAc
# How it was run: as §1
# [22] = target: Gal(b1-3)GlcNAc(b1-3)Gal(b1-3)GlcNAc
# How it was run: as §1
# [23] = target: Gal(b1-3)GlcNAc(b1-3)Gal(b1-4)Glc
# How it was run: as §1
# [24] = target: Gal(b1-3)GlcNAc(b1-3)Gal(b1-4)GlcNAc
# How it was run: as §1
# [25] = target: Gal(b1-3)GlcNAc(b1-3)Gal(b1-4)GlcNAc(b1-2)Man(a1-3)[Gal(b1-3)GlcNAc(b1-3)Gal(b1-4)GlcNAc(b1-2)Man(a1-6)]Man(b1-4)GlcNAc(b1-4)GlcNAc
# How it was run: as §1
# [26] = target: Gal(b1-3)GlcNAc(b1-3)Gal(b1-4)GlcNAc(b1-2)[Gal(b1-3)GlcNAc(b1-3)Gal(b1-4)GlcNAc(b1-6)]Man(a1-6)[Gal(b1-3)GlcNAc(b1-3)Gal(b1-4)GlcNAc(b1-2)Man(a1-3)]Man(b1-4)GlcNAc(b1-4)[Fuc(a1-6)]GlcNAc
# How it was run: as §1
# [27] = target: Gal(b1-3)GlcNAc(b1-3)Gal(b1-4)GlcNAc(b1-3)Gal(b1-4)GlcNAc(b1-2)[Gal(b1-3)GlcNAc(b1-3)Gal(b1-4)GlcNAc(b1-3)Gal(b1-4)GlcNAc(b1-6)]Man(a1-6)[Gal(b1-3)GlcNAc(b1-3)Gal(b1-4)GlcNAc(b1-3)Gal(b1-4)GlcNAc(b1-2)Man(a1-3)]Man(b1-4)GlcNAc(b1-4)[Fuc(a1-6)]GlcNAc
# How it was run: as §1
# [28] = target: Gal(b1-3)GlcNAc(b1-3)Gal(b1-4)GlcNAc(b1-6)[Gal(b1-3)GlcNAc(b1-3)]Gal(b1-4)Glc
# How it was run: as §1
# [29] = target: Gal(b1-3)GlcNAc(b1-3)Gal(b1-4)[Fuc(a1-3)]GlcNAc
# How it was run: as §1
# [30] = target: Gal(b1-3)GlcNAc(b1-3)Gal(b1-4)[Fuc(a1-3)]GlcNAc(b1-6)[Gal(b1-3)GlcNAc(b1-3)]Gal(b1-4)Glc
# How it was run: as §1
# [31] = target: Gal(b1-3)GlcNAc(b1-3)GalNAc
# How it was run: as §1
# [32] = target: Gal(b1-3)GlcNAc(b1-6)Gal(b1-4)GlcNAc
# How it was run: as §1
# [33] = target: Gal(b1-3)GlcNAc(b1-6)GalNAc
# How it was run: as §1
binder,measurement,setting,value
B1,glycan array binding signal (z-score),[1],-0.316
same,glycan array binding signal (z-score),[2],1.2
same,glycan array binding signal (z-score),[3],-0.161
same,glycan array binding signal (z-score),[4],-0.551
same,glycan array binding signal (z-score),[5],-0.12
same,glycan array binding signal (z-score),[6],3.75
same,glycan array binding signal (z-score),Gal(a1-3)GalNAc,-0.045
same,glycan array binding signal (z-score),[7],-0.628
same,glycan array binding signal (z-score),[8],0.715
same,glycan array binding signal (z-score),Gal(a1-4)Gal(b1-4)Glc,-0.307
same,glycan array binding signal (z-score),Gal(a1-4)Gal(b1-4)GlcNAc,-0.429
same,glycan array binding signal (z-score),[9],3.37
same,glycan array binding signal (z-score),[10],-0.475
same,glycan array binding signal (z-score),Gal(a1-4)GlcNAc,-0.156
same,glycan array binding signal (z-score),Gal(a1-6)Glc,-0.274
same,glycan array binding signal (z-score),Gal(b1-2)Gal,-0.257
same,glycan array binding signal (z-score),Gal(b1-3)Gal,-0.077
same,glycan array binding signal (z-score),Gal(b1-3)Gal(b1-4)GlcNAc,-0.238
same,glycan array binding signal (z-score),Gal(b1-3)GalNAc,-0.229
same,glycan array binding signal (z-score),[11],0.02
same,glycan array binding signal (z-score),[12],-0.151
same,glycan array binding signal (z-score),Gal(b1-3)GalNAc(b1-3)Gal,-0.298
same,glycan array binding signal (z-score),[13],-0.17
same,glycan array binding signal (z-score),[14],-0.071
same,glycan array binding signal (z-score),[15],-0.118
same,glycan array binding signal (z-score),Gal(b1-3)GlcNAc,-0.316
same,glycan array binding signal (z-score),[16],-0.185
same,glycan array binding signal (z-score),[17],0.176
same,glycan array binding signal (z-score),Gal(b1-3)GlcNAc(b1-2)Man,-0.057
same,glycan array binding signal (z-score),[18],-0.571
same,glycan array binding signal (z-score),[19],0.494
same,glycan array binding signal (z-score),[20],0.507
same,glycan array binding signal (z-score),[21],1.1
same,glycan array binding signal (z-score),[22],-0.285
same,glycan array binding signal (z-score),[23],-0.329
same,glycan array binding signal (z-score),[24],0.059
same,glycan array binding signal (z-score),[25],1.71
same,glycan array binding signal (z-score),[26],-0.023
same,glycan array binding signal (z-score),[27],1.44
same,glycan array binding signal (z-score),[28],0.561
same,glycan array binding signal (z-score),[29],-0.065
same,glycan array binding signal (z-score),[30],0.293
same,glycan array binding signal (z-score),[31],-0.738
same,glycan array binding signal (z-score),[32],0.439
same,glycan array binding signal (z-score),[33],-0.648
